# Test results as given in PubChem BioAssay AID2675 (National Center for Advancing Translational Sciences (NCATS), 2010).
# The whole screen tested about 280,000 compounds, of which about 100 (0.036%) were called active. This list was built around the results that the source calls inconclusive (neither active nor inactive); the mix of calls is not that of the screen. Calls follow the shape of the dose curve; as a rule, active = well fitted inhibition curve with a large enough effect in the signal ratio, with a control signal flat (not every such curve was filed as active); inconclusive = small, poorly fitted or top-dose-only effect, or effect the other way, or a change in a side signal; inactive = no such curve, though single readings can be large or run the other way; the % refers to the signal ratio. Potencies beside an inconclusive call are fits to weak or partial responses and may not hold up. A note “side channel” means that the fit belongs to a control or component signal, not to the main read-out.
# Molecular target: Muscleblind-like protein 1 (Homo sapiens) (UniProt Q9NR56)
# Assay: qHTS Assay for Inhibitors of MBNL1-poly(CUG) RNA binding
# Conditions: TR-FRET MBNL1-His/biotin-(CUG)12 binding, 665/545 ratio; activity change, negative = inhibition: at 57.5 µM (top of the series)
# Summary of the method: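 Compound titration spanned 92 nM–58 uM against the MBNL1-His/biotin-(CUG)12 complex. After 60 min at room temperature with 5 nM streptavidin-XL665 and 0.055 ng/ul terbium anti-His, ratiometric 665/545 nm emission (Ex 340 nm) normalized to controls.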
# % is scaled to controls: 0 for no effect and ±100 for the full control effect; potency is read from the fitted curve at half-maximal effect; tags tell the direction and shape of the fitted curve or compound fluorescence and quenching.
# Chain of UniProt Q9NR56 (Q9NR56 whole entry, looked up): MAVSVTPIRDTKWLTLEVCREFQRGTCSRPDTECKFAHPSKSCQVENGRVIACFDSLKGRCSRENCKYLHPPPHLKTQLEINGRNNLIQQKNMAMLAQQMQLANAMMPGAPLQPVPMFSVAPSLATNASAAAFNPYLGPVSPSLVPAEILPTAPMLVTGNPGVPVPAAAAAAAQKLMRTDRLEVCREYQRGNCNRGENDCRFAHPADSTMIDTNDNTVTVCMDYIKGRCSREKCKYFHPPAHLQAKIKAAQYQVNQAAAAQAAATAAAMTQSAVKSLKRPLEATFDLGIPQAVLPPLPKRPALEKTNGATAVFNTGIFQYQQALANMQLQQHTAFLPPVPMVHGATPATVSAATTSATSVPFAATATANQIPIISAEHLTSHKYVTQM
Structure (SMILES),Potency,"activity change, negative = inhibition"
Cc1cc(CN2C(=O)c3ccccc3C2=O)cc(N2CCOCC2)c1,"inconclusive: 14.1 µM [quencher, side channel, partial curve]",
COC(=O)CCC(=O)OC1(C)C(=O)C2=CN(CC(C)C)C(c3ccc(OC)cc3)=CC2=C(Br)C1=O (stereo not given),"inconclusive: 15.8 µM [quencher, partial curve]",
CC(O)[C@@H](O)[C@H]1CNc2nc(N)[nH]c(=O)c2N1 (stereo not given in full),"inconclusive: 10 µM [quencher, side channel, partial curve]",
O=C(CCCN1C(=O)/C(=C/c2ccco2)SC1=S)Nc1ccccc1C(=O)O,,inactive: 17.8%
N#C/C(=C\c1ccc[nH]1)C(=O)N1CCCCC1,"inconclusive: 28.2 µM [quencher, side channel, single point]",
COc1cccc(C(=O)Nc2cccc(-c3ccc4nncn4n3)c2)c1OC,"inconclusive: 31.6 µM [quencher, side channel, single point]",
Cc1nn(Cc2ccc(C(=O)N3CCCC3)o2)c(C)c1[N+](=O)[O-],,inactive: -1.49%
O=C(N/N=C/C=C/c1ccccc1)c1cnccn1,"inconclusive: 12.6 µM [quencher, partial curve]",
O=C(CN1CCCC1)NC(c1ccccc1)c1ccccc1,,inactive: -20.4%
Cc1ccc(NC2=C/C(=N\S(=O)(=O)c3cccs3)c3ccccc3C2=O)c(C)c1,"inconclusive: 39.8 µM [quencher, side channel, single point]",
O=C(Cn1c2ccccc2c(=O)c2cc([N+](=O)[O-])ccc21)Nc1ccccc1Cl,"inconclusive: 2.24 µM [quencher, side channel, partial curve, poor fit]",
Cc1csc(NC(=O)CSc2nc3sc(C)c(C)c3c(=O)[nH]2)n1,,inactive: -0.488%
CC(=O)n1cc(/C=N/NC(=O)c2ccc([N+](=O)[O-])cc2)c2ccccc21,"inconclusive: 2.24 µM [quencher, side channel, full curve]",
CC(=O)c1ccc(NC(=O)C2(c3ccccc3)CCOCC2)cc1,,inactive: 6.6%
Cc1cccc(NC(=O)c2ccc3c(c2)C(=O)N(Cc2cccnc2)C3=O)c1C,"inconclusive: 2.82 µM [quencher, side channel, full curve]",
CCCOc1ccc(C2=NNC(c3cccs3)=Nc3ccc(OC)cc32)cc1,"inconclusive: 79.4 µM [inhibitor, single point]",
CCn1c(=O)cc(OCC(=O)NCc2ccc(C)o2)c2ccccc21,,inactive: 3.79%
Cc1onc(-c2ccccc2)c1C(=O)N/N=C/c1ccc([N+](=O)[O-])c(O)c1,"inconclusive: 15.8 µM [quencher, partial curve]",
C=CCNCCOCCOc1ccc(C)cc1Br,"inconclusive: 12.6 µM [quencher, side channel, partial curve, poor fit]",
Cc1cccc2cc(C#N)c(NCCNC(=O)COc3ccccc3)nc12,"inconclusive: 39.8 µM [fluorescent, single point]",

Structure (SMILES),Potency,"activity change, negative = inhibition"
CCn1cc([N+](=O)[O-])c(C(=O)Nc2ccn(C34CC5CC(CC(C5)C3)C4)n2)n1,"inconclusive: 20 µM [quencher, side channel, partial curve]",
N#CC(C(=O)c1ccccc1Cl)=C1SCCCS1,"inconclusive: 14.1 µM [quencher, side channel, partial curve]",
O=C(O)c1cccc(-c2ccc(/C=N/NC(=O)c3cccnc3)o2)c1,"inconclusive: 17.8 µM [quencher, side channel, partial curve]",
C=CCNc1nc(N)c(C(=O)c2ccc3c(c2)OCO3)s1,"inconclusive: 31.6 µM [quencher, side channel, single point]",
COC(=O)c1[nH]c2cc(OC)ccc2c1NC(=O)CN1CCOCC1,"inconclusive: 39.8 µM [quencher, side channel, single point]",
Cn1c(NN)nc2sc3c(c2c1=O)CC(C)(C)OC3,"inconclusive: 8.91 µM [quencher, side channel, single point]",
COc1ncnc2c1NC1=C(S2)C(=NCCC(=O)O)CC(C)(C)C1,"inconclusive: 12.6 µM [quencher, side channel, partial curve]",
Cc1[nH]n(S(=O)(=O)Cc2ccccc2)c(=O)c1N=Nc1ccccc1Cl,"inconclusive: 25.1 µM [quencher, side channel, partial curve]",
Oc1ccc(Oc2ccc(Oc3ccc(O)cc3)cc2)cc1,,inactive: 4.79%
COCCCNS(=O)(=O)c1ccc2c3c(cccc13)C(=O)S2,"inconclusive: 8.91 µM [quencher, side channel, partial curve]",
CN(C)c1ccc(N/C=C/C(=O)C(F)(F)F)cc1,"inconclusive: 20 µM [quencher, side channel, partial curve]",
O=C(N/N=C/c1cccc2ccccc12)c1ccncc1,"inconclusive: 12.6 µM [quencher, partial curve]",
Cc1cccn2c(=O)c3cc(C(=O)NCC4CCCO4)c(=N)n(CCN4CCOCC4)c3nc12 (stereo not given),"inconclusive: 6.31 µM [quencher, side channel, partial curve]",
COc1ccc(CCNC(=O)C2CCN(S(=O)(=O)c3cccc4nonc34)CC2)cc1OC,"inconclusive: 10 µM [quencher, partial curve]",
CCC(c1nnnn1Cc1ccccc1)N(Cc1cc2cc(OC)ccc2[nH]c1=O)CC1CCCO1 (stereo not given),"inconclusive: 35.5 µM [quencher, side channel, single point]",
COc1cc(C)ccc1OCCOc1cc(C)ccc1Cl,,inactive: -0.849%
O=C(CCNC(=O)Cn1cnc2ccccc2c1=O)NCC1COc2ccccc2O1 (stereo not given),,inactive: -14.6%
O=[N+]([O-])c1ccc(NCCOc2ccccc2Cl)nc1,"inconclusive: 12.6 µM [quencher, side channel, partial curve]",
O=C(c1ccc(N2CCC3(CC2)OCCO3)c([N+](=O)[O-])c1)N1CCOCC1,"inconclusive: 12.6 µM [quencher, side channel, partial curve]",
CC1(C)CC(=O)C(N=Nc2ccc(S(=O)(=O)N3CCOCC3)cc2)=C(O)C1,"inconclusive: 1.26 µM [quencher, full curve]",

Structure (SMILES),Potency,"activity change, negative = inhibition"
COc1cccc(NC(=S)N/N=C2\CC3CCC2(C)C3(C)C)c1 (stereo not given),,inactive: 0.0361%
Cc1ccc(O)c(NS(=O)(=O)c2cccc3nsnc23)c1,"inconclusive: 8.91 µM [quencher, side channel, partial curve]",
O=C(Nc1ncc2c(n1)-c1ccccc1OC2)c1ccc(Cl)cc1Cl,,inactive: 4.38%
CC(=O)NCCN=C(C)c1sc2ccccc2c1O,"inconclusive: 25.1 µM [quencher, side channel, single point]",
COc1ccc(CCNC(=O)c2ccc(-c3ccc([N+](=O)[O-])cc3)o2)cc1OC,"inconclusive: 7.08 µM [quencher, side channel, partial curve]",
CCc1nnc(NS(=O)(=O)c2ccc(NC(=O)c3cc(Cl)ccc3[N+](=O)[O-])cc2)s1,"inconclusive: 17.8 µM [quencher, side channel, single point]",
NC(=O)c1ccccc1N/C=C/C(=O)c1ccc(Cl)cc1,"inconclusive: 3.16 µM [quencher, side channel, full curve]",
CC(=O)Oc1ccc(N2C(=O)C3C(C2=O)C(C(=O)c2ccc(Cl)cc2)N2CCCC32)cc1 (stereo not given),"inconclusive: 31.6 µM [quencher, side channel, partial curve]",
O=S(=O)([N-]c1nc2ccccc2nc1-[n+]1ccc(Cc2ccccc2)cc1)c1ccc(Br)s1,"inconclusive: 14.1 µM [quencher, side channel, partial curve]",
C/C(=N\NC(=O)c1ccc(=O)[nH]n1)c1cccnc1,"inconclusive: 22.4 µM [quencher, side channel, single point]",
COc1ccc(Cc2nnc(Cl)c3ccccc23)cc1OC,"inconclusive: 39.8 µM [fluorescent, side channel, single point]",
O=c1c(/C=C(\O)c2ccc(F)cc2)nc2ccccc2n1-c1ccccc1,,inactive: -1.58%
Cc1ccc(-n2cccn2)c(CN2CCCC(C(=O)c3ccc4c(c3)OCO4)C2)c1 (stereo not given),,inactive: -5.95%
Fc1cccc2sc(Nc3nc4c(F)cccc4s3)nc12,"inconclusive: 1.41 µM [fluorescent, side channel, full curve]",
CCOC(=O)N1CCN(C(=O)/C=C/c2ccc3c(c2)OCO3)CC1,"inconclusive: 17.8 µM [quencher, side channel, partial curve]",
Nc1c(S(=O)(=O)O)cc(NC(=O)c2ccccc2)c2c1C(=O)c1ccccc1C2=O,"inconclusive: 7.94 µM [quencher, side channel, partial curve]",
Cc1nc(N)sc1-c1csc(Nc2cccc(O)c2)n1,"inconclusive: 14.1 µM [quencher, side channel, partial curve]",
COCCNS(=O)(=O)c1ccc2c(c1)C(=O)c1cc(S(=O)(=O)NCCOC)ccc1-2,"inconclusive: 11.2 µM [quencher, side channel, partial curve]",
COc1ccc(NC(=O)c2ccc(-n3cccn3)c([N+](=O)[O-])c2)cc1,"inconclusive: 3.55 µM [quencher, side channel, full curve]",
O=C(N/N=C/c1ccc(OC(F)F)cc1)c1cc[n+]([O-])cc1,,inactive: 12.9%
